From PubChem BioAssay (NCATS)
The shares of active, inactive and inconclusive entries below differ from those in the screen. Where the call is inconclusive, the potency comes from a doubtful curve fit. Active and inactive are the calls of the source. The call rests on the fitted dose curve; in most records, active means well fitted activation curve with a large enough effect; inconclusive means small, poorly fitted or top-dose-only effect; inactive means no such curve, though single readings can be large or run the other way.

These molecules were tested against Cellular tumor antigen p53 (Homo sapiens) (UniProt P04637) (assay: Primary qHTS for small molecule compounds that upregulate eGFP-tagged delta133p53alpha (in N-terminal) cells. (AID 2060322; further: nearly all actives have a fitted effect of over 75% in size;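 on activation: series mostly up to about 56 µM; 0% = DMSO vehicle and 100% = reference activator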)). Conditions: NCI-H358 eGFP-delta133p53alpha fluorescence, 24 h; activation: hits give high values.
Chain of UniProt P04637 (P04637 whole entry, looked up): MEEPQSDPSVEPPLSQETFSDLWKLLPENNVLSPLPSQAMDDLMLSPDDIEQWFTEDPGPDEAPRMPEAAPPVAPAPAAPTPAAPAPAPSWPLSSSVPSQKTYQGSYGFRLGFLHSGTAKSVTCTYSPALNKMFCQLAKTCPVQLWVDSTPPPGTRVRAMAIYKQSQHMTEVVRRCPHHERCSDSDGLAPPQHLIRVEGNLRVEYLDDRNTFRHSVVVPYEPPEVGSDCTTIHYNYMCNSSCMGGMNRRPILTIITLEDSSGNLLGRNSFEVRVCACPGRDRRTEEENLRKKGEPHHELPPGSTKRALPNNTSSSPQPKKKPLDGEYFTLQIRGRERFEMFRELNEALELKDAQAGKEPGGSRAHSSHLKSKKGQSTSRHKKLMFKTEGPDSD
Procedure, shortened: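 NCI-H358 cells pre-induced 24 h with 10 ng/ml doxycycline to express N-terminal eGFP-delta133p53alpha, then dosed 24 h at 37C without doxycycline; fixed, Hoechst-stained, GFP intensity by laser scanning cytometry, normalized to DMSO (0%) and 57.5 uM 5-azacytidine (100%).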
Potency means the concentration at half of the fitted maximal effect; tags describe the fitted curve by direction and shape.

SMILES	Potency	activation
COc1cc2ncnc(N3CCC(Oc4cnc5ccccc5n4)C3)c2cc1OC (stereo not given)	inconclusive: 0.107 µM [activator, full curve, poor fit]	–
C=C1CC[C@@H]2[C@](C)(CO)[C@H](O)CC[C@@]2(C)[C@@H]1C/C=C1/C(=O)OC[C@@H]1O	active: 11.7 µM	–
CCNc1nc(Nc2cc(F)c(C(=O)N3CCOCC3)cc2OC)ncc1C(F)(F)F	–	inactive: 10.7%
O=C1Nc2ccc(Cl)cc2C(C#CC2CC2)(C(F)(F)F)O1 (stereo not given)	inconclusive: 0.0014 µM [activator, full curve, poor fit]	–
c1ccc(-c2cnc(Nc3ccc(OCCN4CCCC4)cc3)s2)cc1	inconclusive: 37.9 µM [activator, single point]	–
C[C@@H]1CC[C@]2(C(=O)O)CC[C@]3(C)C(=CCC4[C@@]5(C)C[C@@H](O)[C@H](O)[C@@](C)(CO)C5CC[C@]43C)C2[C@H]1C (stereo not given in full)	inconclusive: 9.28 µM [activator, single point]	–
CNc1ncnc2c1ncn2[C@H]1C[C@H](OP(=O)(O)O)[C@@H](COP(=O)(O)O)O1	–	inactive: 3.4%
CCOC(=O)[C@H](CCc1ccccc1)N[C@@H](C)C(=O)N1Cc2cc(OC)c(OC)cc2C[C@H]1C(=O)O	–	inactive: -5.86%
c1ccc2sc(SSc3nc4ccccc4s3)nc2c1	inconclusive: 3.38 µM [activator, partial curve, poor fit]	–
C=C(C)C(=O)O[C@H]1[C@H]2C(=C)C(=O)O[C@@H]2C[C@@H](C)[C@@H]2O[C@@H]2C(=O)[C@](C)(O)[C@@H]1OC(C)=O	inconclusive: 11.7 µM [activator, single point]	–
Cc1[nH]c2ccccc2c1CCNCc1ccc(C=CC(=O)NO)cc1	–	inconclusive: 34% [activator]
C=C(C(=O)OC[C@H]1O[C@@H](OC(=O)/C=C/c2ccccc2)[C@H](O)[C@@H](O)[C@@H]1O)C(O)CO (stereo not given in full)	inconclusive: 2.62 µM [activator, full curve]	–
NC(=O)c1ccccc1O	inconclusive: 38.9 µM [activator, single point]	–
COc1cc(OC)cc(OC)c1	inconclusive: 27.6 µM [activator, single point]	–
O=C(C=CC#Cc1cccc(NS(=O)(=O)c2ccccc2)c1)NO	inconclusive: 38.5 µM [activator, single point]	–
CN(C)/C(N)=N/C(=N)N	inconclusive: 17.4 µM [activator, partial curve, poor fit]	–
CC1=CC(=O)CC(C)(C)[C@@]1(O)CC[C@@H](C)O[C@@H]1O[C@H](CO)[C@@H](O)[C@H](O)[C@H]1O	–	inactive: 29.5%
CO[C@H]1C=CO[C@@]2(C)Oc3c(C)c(O)c4c(O)c(c(C=NN5CCN(C)CC5)c(O)c4c3C2=O)NC(=O)C(C)=CC=C[C@H](C)[C@H](O)[C@@H](C)[C@@H](O)[C@@H](C)[C@H](OC(C)=O)[C@H]1C	–	inactive: 3.33%
CCCCC(CC)CN1CN(CC(CC)CCCC)CC(C)(N)C1 (stereo not given)	–	inconclusive: 31.8% [activator]
CC(C)c1nc(-c2ccc(NC(=O)Nc3cccc(C(F)(F)F)c3)c3ccccc23)c2c(N)nccn12	active: 26.9 µM	–

SMILES	Potency	activation
CCCCCOC(=O)Nc1nc(=O)n(C2O[C@H](C)[C@@H](O)[C@H]2O)cc1F (stereo not given in full)	–	inactive: -11.7%
C=C(C)[C@@H]1CC[C@]2(CO)CC[C@]3(C)[C@H](CC[C@@H]4[C@@]5(C)CC[C@H](O)C(C)(C)[C@@H]5CC[C@]43C)[C@@H]12	active: 10.4 µM	–
O=C1C(O)=C(O)C(=O)C(O)=C1O	–	inactive: -14.1%
C=CC(C)(O)CC/C=C(\C)C(=O)OC1C(O)C(CO)OC(OC(=O)C23CCC(C)(C)CC2C2=CCC4C5(C)CCC(OC6OC(COC7OCC(OC(C)=O)C(O)C7OC7OC(COC(C)=O)C(O)C(O)C7OC(C)=O)C(O)C(O)C6OC6OCC(O)C(O)C6O)C(C)(C)C5CCC4(C)C2(C)C(O)C3O)C1OC1OCC(OC2OCC(O)C(OC3OCC(O)C(O)C3O)C2O)C(O)C1O (stereo not given)	–	inactive: -12.2%
CC1=CC2/C=C(\C)CCC(O)C/C=C/C(=O)OC23C(=O)NC(CC(C)C)C3C1C (stereo not given)	inconclusive: 0.165 µM [activator, full curve, poor fit]	–
CC1CC(=O)NN=C1c1ccc(NCC(C)(C)NCC(O)COc2cc(Cl)ccc2C#N)cc1 (stereo not given)	inconclusive: 21.3 µM [activator, partial curve, poor fit]	–
CCn1c(-c2nonc2N)nc2c(C#CC(C)(C)O)ncc(OCC3CCCNC3)c21 (stereo not given)	inconclusive: 30.1 µM [activator, single point]	–
CCC(=C(c1ccc(O)cc1)c1ccc(OCCNC)cc1)c1ccccc1	–	inactive: 62.8%
COc1cc(CCc2ccccc2)c(C(=O)O)c2c1CC(C(C)(C)O)O2 (stereo not given)	–	inactive: -13%
COC(=O)c1nc(Cl)c(Cl)nc1N	active: 27.6 µM	–
O=C(O)Cc1cccc(-c2cc(CCCCCCc3ccc(O[C@H]4O[C@H](CO)[C@@H](O)[C@H](O)[C@@H]4O)c(-c4cccc(CC(=O)O)c4)c3)ccc2O[C@H]2O[C@H](CO)[C@@H](O)[C@H](O)[C@@H]2O)c1	–	inactive: 4.33%
COc1ccc([C@H]2OC[C@H]3[C@@H]2CO[C@@H]3c2ccc(O[C@@H]3O[C@H](CO)C(O)[C@H](O)[C@H]3O)c(OC)c2)cc1OC (stereo not given in full)	–	inactive: -1.79%
CCc1cc2c(cc1CC)CC(NCC(O)c1ccc(O)c3[nH]c(=O)ccc13)C2 (stereo not given)	inconclusive: 37.9 µM [activator, single point]	–
Nc1c(I)cc(I)c(C(=O)N(CCC(=O)O)c2ccccc2)c1I	inconclusive: 12.3 µM [activator, partial curve, poor fit]	–
C[C@@H]1CCC2C(C)(C)[C@H](O)CC[C@]2(C)[C@@]12Cc1c(O)cc3c(c1O2)CN([C@@H](CCC(=O)O)C(=O)O)C3=O (stereo not given in full)	–	inactive: -9.16%
O=C(O)c1ccncc1Nc1nn(CCN2CCC(F)(F)CC2)c2ccc(F)cc12	inconclusive: 43.2 µM [activator, single point]	–
C=C1C(=O)O[C@@H]2[C@H]1CC[C@H](C)[C@]1(CCC(=O)O1)C2(C)O (stereo not given in full)	inconclusive: 15.1 µM [activator, single point]	–
NC(=O)CC[C@@H]1NC(=O)[C@H](Cc2ccccc2)NC(=O)[C@H](Cc2ccc(O)cc2)NC(=O)CCSSC[C@@H](C(=O)N2CCC[C@H]2C(=O)N[C@@H](CCCN=C(N)N)C(=O)NCC(N)=O)NC(=O)[C@H](CC(N)=O)NC1=O	–	inactive: -3.35%
COc1cc(OC)c(C=CS(=O)(=O)Cc2ccc(OC)c(NCC(=O)O)c2)c(OC)c1	inconclusive: 43.2 µM [activator, single point]	–
Cc1[nH]cnc1-c1ccc(Cl)cc1	–	inactive: 15.3%
